In PubChem BioAssay AID1347073 (National Center for Advancing Translational Sciences (NCATS), 2019):
Screen size: about 45,000 compounds; about 200 (0.44%) were called active. Roughly 7% stayed inconclusive and do not appear here. The call rests on the fitted dose curve; in most records, active means well fitted activation curve with a large enough effect; inconclusive means small, poorly fitted or top-dose-only effect; inactive means no such curve, though single readings can be large or run the other way. Some of the results follow.

assay: qHTS of TDP-43 Inhibitors: NCGC Sytravon Library Screen; conditions: yeast TDP-43 toxicity rescue, BacTiter-Glo growth, 24 h; series mostly up to 46.1 µM; growth rescue (activation): at the top concentration; further: nearly all actives have a fitted effect of over 55% in size; on growth rescue (activation): 0% is about no effect
Outline: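 TDP-43-expressing yeast, pregrown in raffinose, seeded at OD600 0.02 in galactose medium with compound for 24 hr at 30 deg C. Growth read by BacTiter-Glo luminescence, so rescue of toxicity appears as activation.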
Potency means the concentration at half of the fitted maximal effect.

Compound	growth rescue (activation)	Potency
Cn1c(SCC(=O)N2CCc3ccccc32)nnc1-c1ccc(S(=O)(=O)N2CCCC2)cc1	inactive: -4.59%	
CCCCC(=O)N(C)c1c(C)nc2ccc(C(=O)N3CCN(S(=O)(=O)CC)CC3)cn12	inactive: 17.9%	
CCCN1C(=O)c2cc(C(=O)Nc3ccc(OC)c(OC)c3)ccc2C1Nc1ccc(OC)c(OC)c1 (configuration not stated)	inactive: -3.26%	
O=C(NNC(=O)c1cc(-c2ccccc2)n(-c2ccccc2)n1)c1cccc([N+](=O)[O-])c1	inactive: 19.3%	
C/C(Cc1ccccc1)=N\NC(=O)CNC(=O)c1ccc(Cl)cc1Cl	inactive: 9.24%	
CO/N=C/c1cccn1-c1nccc(N(C)C)c1C#N	inactive: -7.73%	
O=C1/C(=C/c2cccc(F)c2)SC(=S)N1NS(=O)(=O)c1ccccc1	inactive: 1.07%	
CCCCc1cc(=O)oc2cc(O)cc(O)c12	inactive: 0.295%	
Cc1cc(C)nc(Sc2ccc([N+](=O)[O-])cc2[N+](=O)[O-])n1	inactive: 11.9%	
C=CCOc1cccc(CNn2nnnc2N)c1	inactive: 1.64%	
O=C(Nc1cccc(Cl)c1)c1cc(-c2ccco2)on1	inactive: 16.1%	
COc1cc(/C=C/C(=O)NC(C)(C)C)ccc1OCc1ccccc1	inactive: 27.9%	
COc1ccc(Cl)cc1/C=C1/C(=O)ON=C1C	inactive: -20.3%	
Cc1cc(=O)[nH]c(N/N=C/c2ccc(Br)s2)n1	inactive: 16.1%	
Cn1cc(C(=O)N/N=C/C=C/c2ccccc2)ccc1=O	inactive: 18.4%	
N#CC(C#N)=C1C=CC=CN1/C(=C\c1ccco1)C(=O)c1ccc(Cl)cc1	inactive: -7.03%	
CCCCCOc1ccc(NC(=O)C(=O)NCCC2=CCCCC2)cc1	inactive: 0.839%	
O=C(Cn1cccc1C(=O)c1ccccc1)NCc1ccc(Cl)cc1	inactive: 20.8%	
COc1ccc(C(=O)Nc2ccccc2)cc1NC(=O)c1ccc([N+](=O)[O-])cc1	inactive: 8.35%	
Nc1c(C(=O)N2CCOCC2)sc2nc3c(cc12)CCCC3	inactive: 4.41%	
COc1ccc(NC(=O)CNC(=O)Cn2ccc3ccccc3c2=O)c(OC)c1	inactive: -6.44%	
CC1CC[C@@]2(OC1)O[C@H]1CC3[C@@H]4C[C@@H](O)[C@@]5(O)C[C@@H](O)[C@H](O)C[C@]5(C)[C@H]4CC[C@]3(C)[C@H]1[C@@H]2C (some centres not stated)	inactive: 0.474%	

Compound	growth rescue (activation)	Potency
COc1ccc(NC(=O)Nc2ccc(Cc3ccncc3)cc2)c(OC)c1	inactive: -17.5%	
Cc1ccccc1CSc1nc(C(C)(C)C)cc(=O)[nH]1	inactive: 3.13%	
COc1ccc(OC)c2[nH]c(=O)c(CCNS(=O)(=O)c3ccc(F)cc3)cc12	inactive: -16%	
CC(C)CC(=O)N1CCN(c2ccc(NC(=O)c3ccco3)cc2)CC1	inactive: 8.54%	
O=C(O)Cc1ccc(NC(=O)c2ccc(Cl)c(Cl)c2)cc1	inactive: -10.3%	
OCC1(Cc2ccccc2)CCN(Cc2cc3ccccc3o2)CC1	inactive: 3.52%	
CCOC(=O)/C(N=Nc1ccc(Cl)cc1)=C(/O)c1ccc([N+](=O)[O-])cc1	inactive: 19.1%	
CC1CN(C(=O)COC(=O)c2cc3ccccc3cc2O)CC(C)O1 (configuration not stated)	inactive: 4.63%	
CCN1C(=O)/C(=C/c2ccc(N3CCCC3)cc2)NC1=S	inactive: 28.9%	
NC(=O)COC(=O)c1ccc2c(c1)C(=O)N(Cc1ccco1)C2=O	inactive: 18.3%	
COc1ccc(CC(CC(=O)O)C(=O)NCc2ccccc2)cc1 (configuration not stated)	inactive: -0.655%	
O=C(O)C12C[C@H]3C[C@@H](C1)CC(n1ncc(N4CCN(c5ccccc5)CC4)c(Cl)c1=O)(C3)C2	inactive: 12.5%	
CCOC(=O)C1C(=O)OC(C)(C)C1C(C)C(=O)c1ccc(C)cc1C (configuration not stated)	inactive: 1.15%	
Cc1cc2ccccn2c1C(=O)c1ccccc1F	inactive: 25.4%	
CCn1c(CC(=O)Nc2ccc(F)cc2)nnc1SCC(=O)Nc1nncs1	inactive: -4.35%	
COC(=O)[C@@H](NC(=O)c1cc(COc2cncc(Cl)c2)on1)c1ccccc1	inactive: 20.5%	
O=C(CSC1CC(=O)N(c2ccc(C(=O)O)cc2)C1=O)Nc1ccc(Cl)cc1 (configuration not stated)	inactive: -0.0087%	
COC(=O)c1ccc(C(=O)OC)c(NC(=O)C(C)C)c1	inactive: 13.8%	
O=C(O)c1ccc(-n2c(=O)c3ccccc3c3ccccc3c2=O)cc1	inactive: 5.96%	
CC(Nc1ccccc1)c1ccncc1 (configuration not stated)	inactive: 2.8%	
COc1ccc(C2c3ccc(O)cc3Oc3ncn4nc(-c5ccncc5)nc4c32)cc1OC (configuration not stated)	inactive: 7.74%	
Cc1cc(C)n(C(=O)CCNC(=O)c2ccccc2Br)n1	inactive: 22.8%	

Compound	growth rescue (activation)	Potency
Cc1ccc(-c2csc3ncn(CC#N)c(=O)c23)cc1C	inactive: 27.1%	
CCN(CC)S(=O)(=O)c1ccc(NC(=O)c2cc(-c3cccs3)nc3ccccc23)cc1	inactive: 10.4%	
C/C(=N\NC(=O)CSc1nc(C)[nH]c1[N+](=O)[O-])c1ccc(F)cc1	inactive: 2.81%	
CN(c1ccc(OCC(=O)N2CCN(c3ccc(F)cc3)CC2)cc1)S(=O)(=O)c1cccs1	inactive: 20.4%	
CCNC(=O)C1(C)CCN(C(=O)c2ccc(C(=O)OC)cc2)C1 (configuration not stated)	inactive: 6%	
CCOc1cc(N2CCOCC2)c(OCC)cc1NC(=O)CSc1nccc(C)n1	inactive: 13.3%	
Cc1ccc(/C=N/NC(=O)c2cc(-c3ccc(C)o3)[nH]n2)cc1	inactive: 18.9%	
COC(=O)C1=C(C)NC(=O)/C1=C\c1cc(C)n(-c2ccccc2)c1C	inactive: 4.92%	
C=CCN(CC=C)Cc1cc(=O)n2c(-c3ccccc3)csc2n1	inactive: 3.95%	
O=[N+]([O-])c1cccc2ccc(/C=C/c3ccc(C(F)(F)F)cc3)nc12	inactive: 12.8%	
O=C(COc1ccc2ccccc2c1)NNC(=O)Cc1ccccc1	inactive: 24.6%	
COc1ccc(C(=O)COC(=O)c2ccc(N(C)C)cc2)cc1	inactive: -0.261%	
Cc1cccn2c(=O)c3cc(C(=O)NCc4ccco4)c(=N)n(C4CCCC4)c3nc12	inactive: -13.3%	
[O-]/C(=C(\C(=S)NCCN1CCOCC1)[n+]1ccccc1)c1ccc(Cl)s1	inactive: 14%	
COc1cccc(/C=N/Nc2cc(N3CCOCC3)ncn2)c1O	inactive: 13.5%	
CCCCNC(=O)OCCNC(=O)Oc1cccc(C)c1	inactive: -3.84%	
CN(CCn1ccnc1)C(=O)CC1C(=O)NCCN1Cc1ccccc1C(F)(F)F (configuration not stated)	inactive: 9.84%	
CC(C)c1ccc(C(=O)Nc2ccc(N3CCOCC3)cc2)cc1	inactive: 23.7%	
COc1ccc(NC(=O)C(C)SCc2ccccc2)cc1 (configuration not stated)	inactive: 33.9%	
O=C(CCCc1cccs1)Nc1nccs1	inactive: 1.04%	
CN(C)c1ccc(/C=C/C(=O)c2cccnc2)cc1	inactive: -2.62%	
COc1ccc(CC(=O)NC(C)C2COc3ccccc3O2)cc1OC (configuration not stated)	inactive: -12.8%	

Compound	growth rescue (activation)	Potency
C/C=C/c1ccc(OCCOCCOc2cccc3cccnc23)c(OC)c1	inactive: 12.7%	
CCC(C)(C)n1nnnc1C(c1ccccc1)N1CCN(Cc2ccccc2)CC1 (configuration not stated)	inactive: 11.3%	
CC(C)(C)c1nnc(NS(=O)(=O)c2ccc(F)cc2)s1	inactive: -4.87%	
COc1ccc2c(c1)c1c3n2CCN(C)C3=NCC1	inactive: -1.37%	
Cc1ccccc1OCCC(=O)OCC(=O)NC(C)c1ccccc1 (configuration not stated)	inactive: 6.67%	
COc1ccc(NC(=O)C2(C)Cc3c(-c4cccc(C(N)=O)c4)ccnc3O2)cc1OC (configuration not stated)	inactive: -1.52%	
CN1CCC(N(C)C(=O)Cc2ccccc2[N+](=O)[O-])CC1	inactive: -1.72%	
Cc1nnc(NC(=O)CCC(=O)N2CCN(S(=O)(=O)c3cc([N+](=O)[O-])ccc3C)CC2)s1	inactive: 16.2%	
C=CCOc1c(Cl)cc(CNCCCN2CCOCC2)cc1OC	inactive: -0.685%	
O=C(Nc1ccccc1)NN(C(=O)CCl)c1ccccc1	inactive: 10.4%	
Cc1ccc(OCC(=O)NNc2c3ccccc3nc3ccccc23)cc1	inactive: 3.61%	
Cc1ccc2c(Cl)cc(Cl)c(OCC(=O)Nc3cc(S(=O)(=O)N(C)C)ccc3C)c2n1	inactive: -3.19%	
CC(C)c1ccc(/C=C2\NC(=S)N(Cc3cccnc3)C2=O)cc1	inactive: 8.73%	
Cc1ccc2nc(NCCC(=O)O)nc(-c3ccccc3)c2c1	inactive: 4%	
Cc1ccccc1-c1nnc(CS(=O)(=O)c2ccccc2)o1	inactive: 24.1%	
Cc1ccc(S(=O)(=O)N(Cc2ccc(Cl)cc2)c2ccccc2C(=O)NCc2cccnc2)cc1	inactive: 18.2%	
CC1=CC(c2ccccc2)NC(=S)N1 (configuration not stated)	inactive: 23.3%	
CNc1cccc(-c2cc(OC)ccc2OC)n1	inactive: -2.01%	
CCOC(=O)C1(Cc2ccc(Cl)cc2)CCN(C(=O)CCc2ccncc2)CC1	inactive: 5.81%	
COc1ccc(N(CCC#N)C(=O)/C(C#N)=C/c2cccs2)cc1	inactive: 7.94%	
COc1ccc(CN(CC(=O)NCC2CCCO2)C(=O)CCC(=O)Nc2nccs2)cc1 (configuration not stated)	inactive: 3.78%	
O=C(C1CC1)N1CCc2cc(Br)c(S(=O)(=O)N3CCCCCC3)cc21	inactive: -2.24%	

Compound	growth rescue (activation)	Potency
Cc1ccc(C(=O)COC(=O)CN2C(=O)C3C4CC(C(Br)C4Br)C3C2=O)cc1 (configuration not stated)	inactive: -9.78%	
CC1CCc2nc3ccc(S(=O)(=O)N4CCC(C(=O)NCc5ccccc5Cl)CC4)cc3c(C(=O)O)c2C1 (configuration not stated)	inactive: 5.5%	
Cn1c(=O)c2c(ncn2CC(=O)OCCCC(=O)c2ccc(Br)cc2)n(C)c1=O	inactive: 9.93%	
O=C(NC(C(=O)N/N=C/c1ccccc1)c1n[nH]c(=O)c2ccccc12)c1ccccc1 (configuration not stated)	inactive: 28.6%	
COc1ccc(NC(=O)c2cc(S(=O)(=O)N(C)C)ccc2N2CCCC2)cc1Cl	inactive: 19%	
Cc1cc(CNCc2cn(C)nc2-c2ccc(Oc3ccccc3)cc2)on1	inactive: -1.25%	
CC(C)N1C(=O)CCN(C=O)c2ccccc21	inactive: -4.86%	
CCNC(=S)N1CCN(c2cccc(C(F)(F)F)c2)CC1	inactive: 18.4%	
CCc1ccc(S(=O)(=O)/N=C2\C=C(Nc3ccc(O)cc3)C(=O)c3ccccc32)cc1	inactive: -1.93%	
Cc1ccc(C(=O)N/N=C\c2ccc([N+](=O)[O-])o2)cn1	inactive: 30.8%	
COc1cccc(COC(=O)c2nn(-c3ccccc3)nc2N)c1	inactive: -9.96%	
CCCNCc1nnc(-c2ccccc2Cl)o1	inactive: -6.43%	
COc1ccc(CNS(=O)(=O)c2ccc(-n3cnnn3)c(C)c2)cc1	inactive: 10.1%	
S=C(NC1CCCCC1)N1CCN(C/C=C/c2ccccc2)CC1	inactive: -1.42%	
O/N=C/c1ccccc1Oc1ccc(Cl)cc1		active: 17.8 µM
O=C(NNS(=O)(=O)c1ccc(Cl)cc1)c1cc(-c2ccccc2)n[nH]1	inactive: -3.87%	
N#C/C(=C\c1ccccc1)C(=O)Nc1nncs1	inactive: -22.4%	
O=C(CCCn1cnc([N+](=O)[O-])n1)Nc1cccc(O)c1	inactive: -23.1%	
O=C(O)c1ccccc1SCC(=O)N1CCOCC1	inactive: -3.58%	
